{
  "source": "the supplement of paper PMC12632987",
  "binders": {"B1": {"name": "GBRAP_184_5095 (protein)", "chain": "KTLERHIEAETLEEAEAQIDAAIDEAAAAGANLTLLLSLKGVSEEEIVELVERLGRRAAEAGVPRVTLGIDQLLSEEAADRLIEVADRHGINLVLALPEE"}, "B2": {"name": "GBRAP_160_4697 (protein)", "chain": "SATAAKLKAFVDAEFAETKEMIKGETTEQRATIVAGTGGEVLMEFVENPEAPDELEDAVRAIFDATVATILANPNLTDAQLKALIDDARAAVKAAIDKHL"}, "B3": {"name": "GBRAP_128_3425 (protein)", "chain": "SSEEAVERARELLEAMLTAGPEEAKRLAEELAELFLSADLETAEKIAEVVREMIPQFTAEQLLILADAFRAALPKLTPEKANIAAGVIVDLLNAAEELEE"}, "B4": {"name": "GBRAP_184_5310 (protein)", "chain": "AVRHVVIEAETGEEAVAQLRAAAAAARAAGARLDVTLLLSNVSVEEFEAVMALLAEMRAAGILRDALVDVLDEKSEEEVDALVALADEAGVRLVVALPDE"}, "B5": {"name": "GBRAP_11_2663 (protein)", "chain": "KKEVLEEALKLAREAAETAEKLIEEGVDNEELIAKLEELIKKLKELAEKYLSKAIQSDVEVIVELFKEFKEDKENQLEYAQQLLAALRVLAGNLELELDE"}, "B6": {"name": "GBRAP_184_5250 (protein)", "chain": "EVAFLELDVNSPADIPAAVARFEAFARAHKGTVYVLLNAKGLTTEEKVELIERLGRAAREAGVEELVIDITDELTEEEADKLIAAADALGIRLVLALKEE"}, "B7": {"name": "GBRAP_184_5065 (protein)", "chain": "ETFEATLEVEDLEEAREKMEELAEEVKDHKGDLVVHLVLPEFNREIVELVLERLREIREAGYARRITVGLDADLTEEEVDFALELADEAGVNLTVALPEE"}, "B8": {"name": "GBRAP_137_3660 (protein)", "chain": "MKVKVEAKLDGDFGEVKIEAENEEVALEAADIAIDVARETGVNAAISVDKEEKTVYVDLIGDREKLEAFLKELVERLSEKYDVEVTVEEDGKVTKEEVKK"}, "B9": {"name": "GBRAP_160_4730 (protein)", "chain": "KERIKEFAEEAREIFKKAVEDSKNESKEEAAALFRGAAGEVLMDVMEDERFTDEQEETAAKILDELVKELEANWDASEEEKKKIVDEKIKELLEELLKIK"}, "B10": {"name": "GBRAP_184_5099 (protein)", "chain": "KVLVRKVEAKTKEEALKKIREVLEEAAAAGADLILLLKLENISEEEIVEIVREIGERARELGIPRVTLGIENDLSEETIDKLIKIADELGINLVLAIPEE"}, "B11": {"name": "GBRAP_125_3002 (protein)", "chain": "AKEAAAAQMRTIALAAGFSESLAAELARLVLAGSVRNALAAFALALGNEEAAELIEKLTEEQAAAVVAELAAIAEEEGPMSEEEMAERLLKIAKEALAKQ"}, "B12": {"name": "GBRAP_42_5731 (protein)", "chain": "KLAVTLEIVADTQEEAKAMVEEALKEDERLEKERGVIIRIEVAVPEGLSPEIKAMEKESEERAKEADAESDWVGVANTVEEVPKMIEAVVDIALEELEEK"}, "B13": {"name": "GBRAP_125_3008 (protein)", "chain": "GMEEVAEALGRIARRLGFSEEEVEELKRLALEHGIKGTFYALFKALGLDELADLVEKLTEEEVKEVVREVAAALEENPDLTPEEVVALIKEVLEKALAKK"}, "B14": {"name": "GBRAP_35_5625 (protein)", "chain": "NTNKEIAEATVAVMEDTLLAVDEVPAETFIDTAIKVAKAGIEVAKELKDDKENAKKILEAVKELLEAALKKAEETGAPEEKIKELKELLKEVEELEKKLK"}, "B15": {"name": "GBRAP_26_5459 (protein)", "chain": "MEEAEREAEERVREIAAELPDPRVAAAVVAEFSTELLEAEERIEAGEDPEEAFDEAEEEFLEFVRELMEEAGLSEEEIEEFLRKLREVFDELREKVLELL"}, "B16": {"name": "GBRAP_52_6332 (protein)", "chain": "SMEEVKKLAEELYKAIVAGDEEKAKKLAEEAVKKLSSEEILELAKIVAEKVSKEDYEVKVRAAEVFEYLAELVEKERGDERTAAEILGIYARTLYAAEQA"}, "B17": {"name": "GBRAP_160_4151 (protein)", "chain": "MEELEKLIKEIKEIAEEAIKMMEGESTEEAKNIAKVALGEIVLLVESSEAVSEEVKEKVGKIADEAEAYLDANPDASVEEIKEKLKEATEKVIKILKESK"}, "B18": {"name": "GBRAP_11_2698 (protein)", "chain": "KKEQLKEAAELAEELAKVLDQLIKEGPDNEELRKKAEELLEKITELTKKYGDEGAKKLTEIIKELWKKAQEDKENQVEYLKQARAAARVLAGQYLLEIEE"}, "B19": {"name": "GBRAP_11_2620 (protein)", "chain": "SKETLKELAKLAKEAAKAVEELLKVGVDDEELQKKIEKLLKELAELVKKHGSEADKKDVEIAKELFKKAKEDKENKEQYYKELLAALRVFEGDYLLDIEE"}, "B20": {"name": "GBRAP_125_3130 (protein)", "chain": "SEEEVLKNLALFLKAMGESEDDIAEAVEIARKHGVKGTMYAFALAQGWEELAEEVEKLTEEEVKEVLKELAKELEANPDLTPEEVKELALELARKKLAAR"}, "B21": {"name": "GBRAP_150_3916 (protein)", "chain": "DLETLLTIADTALDLVEAILEGHLELLPHAVKLAEDALEEAKEITEEVKELAKKALDKLKKAEKLVKEGAPLEEIKKEAKEAAEYLKELIKEIEKLIKEE"}, "B22": {"name": "GBRAP_83_6925 (protein)", "chain": "KEKITVAANKDHIEEAAEAAIDLHKNEGYEVDLEFIITKESVPKLLKAFEKLAKAGLNSNVTVLAEGMTEEEAEALKKELEAIAKKYGVNWKVEVYLIEP"}, "B23": {"name": "GBRAP_74_6531 (protein)", "chain": "DAALLAALEAAAEAKDFARAIALTREALATGSRETKIRALAILTAAFTAHADEMTAEEVDAAVDVIVEAELVLEDEDITPELAAGMAVIVAKGVELEKEA"}, "B24": {"name": "GBRAP_9_7153 (protein)", "chain": "MEELLEKVREVIEDAFEEISKVVPEEVKPVVEELREEAEERFEELREDENITPEEIKEEALEILKELRERLSKLVSPEIAKMVDAIVDTAELEIEELYEE"}, "B25": {"name": "GBRAP_160_4095 (protein)", "chain": "MEKVEELIEEIDELRDETIEMIEGEDIAQRATILRGFGGDVLMLLFESGIVSEETEDFADEEFDDLVETVEANPDLTLEEIKALLDEVVEAVKEKIKENG"}, "B26": {"name": "GBRAP_184_5262 (protein)", "chain": "KVLERVVRAENVEELRKKLAEIREEALATGADVIILLEVEELTEEMIDALFEELKELREAGYKGEIVVGIDADLTEEMIDYVLEKADEAGVKVVLEIDEE"}, "B27": {"name": "GBRAP_160_4814 (protein)", "chain": "MEKVEKKLKEAEERLLETAEASKDLPVAERAKLLEAEGYTEILDLEEELNLSDETVDKLVKIVDDMVATLLANPDLTDEEVLALVREAAEKIRKEVLKEA"}, "B28": {"name": "GBRAP_160_4168 (protein)", "chain": "SSLLEEAKKEIEEIFEETIKMIEGQTAEERAAIVRVAFGEIILLLEEKGLLTDELDEKIEEIEDELVNWILENPDLTDEEIKEKIEEALEKIKKALEESS"}, "B29": {"name": "GBRAP_160_4045 (protein)", "chain": "SEAAEKAAEESERLFDETIELMRDLTPEEAAVAMDVTVGEAIMEVVELGIEVTPEMAAVADEARALRDAVLADPSTTVEEVIARARELRERFVAAIRAQA"}},
  "note": "The full ranking holds about 4,500 sequences; the median of “median log2 fold change of GCK-ALFA target abundance (FLAG IP / Myc IP barcode read proportion)” is about 0.078, and the lowest 2% start at about -0.6. The list shows a part of the results.",
  "data": [
    {"target": "GABARAP, O95166", "sequence (O95166 whole entry, the tested form may be a part)": "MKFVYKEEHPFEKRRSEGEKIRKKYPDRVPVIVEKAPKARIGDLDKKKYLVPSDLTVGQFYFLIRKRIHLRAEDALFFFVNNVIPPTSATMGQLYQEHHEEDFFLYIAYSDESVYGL", "test": "median log2 fold change of GCK-ALFA target abundance (FLAG IP / Myc IP barcode read proportion) (log2 ratio); each designed protein is fused to an ALFA-tag nanobody in HEK293 cells to bring the named protein to FLAG-tagged glucokinase (GCK); Myc marks an untargeted standard; higher = target protein stabilised (more abundant)", "details": "target protein: 3xFLAG-MCP-GCK-ALFA reporter; HEK293 landing pad (RPLP)", "in_short": "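Sequencing of reverse-transcribed, amplified circular RNA barcodes from anti-FLAG and anti-Myc immunoprecipitates provided the readout for an ALFA-nanobody-fused binder library recombined into HEK293 landing-pad cells. Those cells were induced with 2 μg mL^−1 doxycycline, transfected with a plasmid expressing a FLAG-tagged target and a Myc-tagged standard, and lysed after 48 h. Target abundance is the per-binder median log2 ratio of FLAG to Myc barcode read proportions. Only barcodes at a proportion of ≥10^−7 in both replicates and binders with ≥3 barcodes per replicate were kept, with a 10^−6 pseudocount added before the two replicates were pooled.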", "values": [
      {"binder": "B1", "median log2 fold change": 0.0102},
      {"binder": "B2", "median log2 fold change": 0.000167},
      {"binder": "B3", "median log2 fold change": 0.228},
      {"binder": "B4", "median log2 fold change": 0.0372},
      {"binder": "B5", "median log2 fold change": 0.236},
      {"binder": "B6", "median log2 fold change": -0.0237},
      {"binder": "B7", "median log2 fold change": 0.0302},
      {"binder": "B8", "median log2 fold change": 0.195},
      {"binder": "B9", "median log2 fold change": 0.317},
      {"binder": "B10", "median log2 fold change": -0.1},
      {"binder": "B11", "median log2 fold change": 0.159},
      {"binder": "B12", "median log2 fold change": 0.0102},
      {"binder": "B13", "median log2 fold change": 0.0823},
      {"binder": "B14", "median log2 fold change": -0.0947},
      {"binder": "B15", "median log2 fold change": -0.266},
      {"binder": "B16", "median log2 fold change": 0.177},
      {"binder": "B17", "median log2 fold change": 0.325},
      {"binder": "B18", "median log2 fold change": 0.135},
      {"binder": "B19", "median log2 fold change": 0.183},
      {"binder": "B20", "median log2 fold change": 0.265},
      {"binder": "B21", "median log2 fold change": -0.223},
      {"binder": "B22", "median log2 fold change": 0.166},
      {"binder": "B23", "median log2 fold change": 0.214},
      {"binder": "B24", "median log2 fold change": 0.157},
      {"binder": "B25", "median log2 fold change": -0.245},
      {"binder": "B26", "median log2 fold change": -0.0412},
      {"binder": "B27", "median log2 fold change": -0.0227},
      {"binder": "B28", "median log2 fold change": -0.0907},
      {"binder": "B29", "median log2 fold change": 0.116}
    ]}
  ]
}
